# Several values for one entry are separate records, joined by “and”; a condition that tells them apart may be missing. Equal entries are not always repeated. The whole screen tested about 390,000 compounds, of which about 4,700 (1.2%) were called active. Inconclusive means that the source gave no clear call. Such entries were picked first, then a sample of the others. The call rests on the fitted dose curve; in most records, active means well fitted inhibition curve with a large enough effect; inconclusive means small, poorly fitted or top-dose-only effect, or another doubt; inactive means no such curve, though single readings can be large or run the other way. Where the call is inconclusive, the potency comes from a doubtful curve fit.
# Target: DNA polymerase eta (Homo sapiens) (UniProt Q9Y253)
# Assay: qHTS for Inhibitors of Polymerase Eta
# Details: recombinant Pol eta, fluorescent DNA replication assay; series mostly up to 114 µM
# Summary of the method: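 Pol eta (10 nM) was preincubated with compounds for 15 min at room temperature, after which fluorescent replication substrate (50 nM final) was added to start the reaction. Fluorescence was read kinetically at 0 and 10 min.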
# Potency means the concentration at half of the fitted maximal effect; tags describe the fitted curve by direction and shape.
# Sequence of UniProt Q9Y253 (Q9Y253 whole entry, looked up): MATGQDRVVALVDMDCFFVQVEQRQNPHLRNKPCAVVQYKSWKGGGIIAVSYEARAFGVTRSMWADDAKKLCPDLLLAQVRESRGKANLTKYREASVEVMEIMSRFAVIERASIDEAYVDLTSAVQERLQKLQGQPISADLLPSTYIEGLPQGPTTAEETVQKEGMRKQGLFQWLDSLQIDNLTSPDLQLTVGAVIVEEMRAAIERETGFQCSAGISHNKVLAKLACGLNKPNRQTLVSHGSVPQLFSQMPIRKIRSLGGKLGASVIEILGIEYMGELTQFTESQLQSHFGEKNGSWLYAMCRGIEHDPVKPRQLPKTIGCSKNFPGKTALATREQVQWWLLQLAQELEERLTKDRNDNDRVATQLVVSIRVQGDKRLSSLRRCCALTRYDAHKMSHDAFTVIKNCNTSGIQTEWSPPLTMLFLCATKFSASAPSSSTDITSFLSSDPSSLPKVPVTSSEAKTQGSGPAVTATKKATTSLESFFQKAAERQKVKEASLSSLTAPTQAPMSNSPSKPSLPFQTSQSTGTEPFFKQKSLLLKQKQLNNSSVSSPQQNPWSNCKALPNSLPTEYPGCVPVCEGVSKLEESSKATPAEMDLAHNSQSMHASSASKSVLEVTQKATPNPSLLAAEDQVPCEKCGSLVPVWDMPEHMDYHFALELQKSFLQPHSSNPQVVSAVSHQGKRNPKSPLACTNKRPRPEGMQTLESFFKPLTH
row,SMILES,Potency
1,COc1ccc(CCNC(=S)NC(=O)c2ccccc2)cc1OC,inactive
2,Cc1ccc(NC(=S)N/N=C/c2ccc(Cl)c([N+](=O)[O-])c2)cc1,"inconclusive: 25.1 µM [inhibitor, partial curve, poor fit]"
3,O=C(O)CCCN1C(=O)C2C3C=CC(C2C1=O)C1C(=O)N(CCCC(=O)O)C(=O)C31 (centres undefined),inactive
4,O=C(NNC(=O)c1cc(OCC(F)(F)F)ccc1OCC(F)(F)F)c1cccc(C(F)(F)F)c1,"inconclusive: 89.1 µM [inhibitor, partial curve, poor fit]"
5,Cc1noc(C)c1CSCC(=O)Nc1cccc(C(F)(F)F)c1,"inconclusive: 79.4 µM [inhibitor, partial curve, poor fit]"
6,O=C(O)c1cccc(N=NN2CCCCCC2)c1,inactive
7,O=C(CSc1ccccc1)Nc1nc2ccccc2[nH]1,inactive
8,CN(c1ccccc1)S(=O)(=O)c1nnc(NC(=O)COc2ccccc2)s1,"inactive and inconclusive: 89.1 µM [inhibitor, partial curve]"
9,Cc1cccc(C(=O)NC(=S)NNC(=O)COc2c(C)cccc2C)c1,inactive
10,COc1ccc(CCNC(=O)c2nc(SCc3ccccc3F)ncc2Cl)cc1OC,inactive
11,Cc1ccc(C(C)C)c(OCC(=O)OCc2c(C)noc2C)c1,"inconclusive: 89.1 µM [inhibitor, partial curve, poor fit]"
12,CC(C)(C)c1ccc(C(=O)Nc2ccccc2NC(=O)c2ccco2)cc1,"inconclusive: 20 µM [inhibitor, partial curve, poor fit]"
13,CCOc1ccc(C(=O)NCc2nc3cccnc3n2Cc2cccc(OC)c2)cc1,inactive
14,Cn1c(SCC(=O)NCc2ccco2)nc2ccccc2c1=O,inactive
15,O=C(NC1CCCc2ccccc21)C(Cc1ccccc1)NS(=O)(=O)c1cccs1 (centres undefined),"inconclusive: 35.5 µM [inhibitor, partial curve, poor fit]"
16,CCOC(=O)c1nnn(-c2nonc2N)c1CSc1ccc(C)cc1,"inconclusive: 79.4 µM [inhibitor, partial curve, poor fit]"
17,Cc1ccc(/C=C/C(=O)O)cc1S(=O)(=O)Nc1ccc(C(=O)O)cc1,"inconclusive: 79.4 µM [inhibitor, partial curve, poor fit]"
18,COc1ccc(/C=C/C(=O)NCCSCc2ccco2)cc1,"inconclusive: 28.2 µM [inhibitor, partial curve, poor fit]"
19,O=C(CCN1C(=O)c2ccccc2C1=O)N1CCCCCC1,"inconclusive: 12.6 µM [inhibitor, partial curve, poor fit]"
20,COc1ccc(-c2csc(NC(=O)c3ccccc3NS(=O)(=O)c3ccc(C)cc3)n2)cc1,active: 20 µM
21,CSc1nsc(/C=C/Nc2ccc(C)cc2)c1C#N,"inconclusive: 14.1 µM [inhibitor, partial curve]"
22,COc1ccc(-c2csc(Nc3ccc(S(=O)(=O)Nc4cc(OC)nc(OC)n4)cc3)n2)cc1,active: 89.1 µM

row,SMILES,Potency
1,CCOC(=O)c1nnn(-c2nc(N3CCCC3)nc(N3CCCC3)n2)c1-c1ccccc1,"inconclusive: 100 µM [inhibitor, single point]"
2,O=C(Cc1ccc2c(c1)OCCO2)Nc1cc(C(F)(F)F)ccc1N1CCOCC1,"inconclusive: 0.316 µM [inhibitor, full curve, poor fit]"
3,O=C(O)c1ccccc1N/N=C/C1=C(N2CCOCC2)C(=C\c2ccccc2)/CC1,active: 44.7 µM
4,COc1ccc(C2=CC3=C(Br)C(=O)C(C)(OC(=O)C4CCCC4)C(=O)C3=CO2)cc1 (centres undefined),active: 44.7 µM
5,CC(NC(=O)COC(=O)/C=C/c1ccc(Cl)cc1)c1ccccc1 (centres undefined),"inconclusive: 89.1 µM [inhibitor, single point]"
6,CC1=C(C(=O)OCC(Cl)(Cl)Cl)N2C(=O)C(NC(=O)Cc3ccccc3)C2SC1 (centres undefined),inactive
7,CCn1c2ccccc2nc2cc3c(cc21)c(Cl)c(=O)c1ccccc13,"inconclusive: 44.7 µM [inhibitor, partial curve]"
8,O=C1CCC(=O)N1c1ccc(-c2nc3sc4c(c3c(=O)o2)CCC4)cc1,inactive
9,Cc1ccc(S(=O)(=O)N(C)C)cc1NC(=O)C1Cc2ccccc2CN1C(=O)c1ccco1 (centres undefined),"inconclusive: 56.2 µM [inhibitor, partial curve, poor fit]"
10,COc1cc(C2Nc3cccc4cccc(c34)N2)ccc1OC(C)=O,active: 14.1 µM
11,Cc1cc(Cl)ccc1OCC(=O)Nc1c(Cl)ccc2nsnc12,inactive
12,CCOC(=O)c1ccc(-n2c(CCC(=O)O)ccc2-c2ccc(Br)cc2)cc1,"inconclusive: 89.1 µM [inhibitor, single point]"
13,COc1cc2c(cc1OC)C1=C(C#N)COCN1CC2,"inconclusive: 17.8 µM [inhibitor, partial curve, poor fit]"
14,S=c1[nH]nc(-c2cccnc2)n1/N=C/C(Cl)=C\c1ccccc1,"inconclusive: 22.4 µM [inhibitor, partial curve, poor fit]"
15,CCN(CC)c1ccc(C=C2C(=O)OC(c3ccccc3)OC2=O)cc1 (centres undefined),"inconclusive: 89.1 µM [inhibitor, single point]"
16,CC(=O)c1ccc(S(=O)(=O)N2CCNCC2)cc1,"inconclusive: 89.1 µM [inhibitor, partial curve, poor fit]"
17,Cc1nn2c(=O)cc(COC(=O)c3ccco3)nc2s1,inactive
18,COc1ccccc1CNS(=O)(=O)c1ccc2c(c1)NC(=O)C(C)C(=O)N2 (centres undefined),"inconclusive: 89.1 µM [inhibitor, partial curve, poor fit]"
19,NC(=O)c1ccsc1NC(=O)COC(=O)CNC(=O)c1ccc(F)cc1,"inconclusive: 22.4 µM [inhibitor, full curve, poor fit]"
20,Cc1c(OCc2ccc(C(=O)O)o2)ccc2c3c(c(=O)oc12)CCC3,active: 17.8 µM
21,O=C1CCCC2=C1C(c1ccc(O)c(O)c1)Nc1ccc3ncccc3c12 (centres undefined),active: 35.5 µM
22,CCc1ccc(OCC2c3cc(OC)c(OC)cc3CCN2C(C)=O)cc1 (centres undefined),"inconclusive: 79.4 µM [inhibitor, partial curve, poor fit]"
